Measured values taken from the supplement of paper PMC12217912.
Some of the results follow. Sequences were assembled here from the parent chain. Inactive controls read about 0.05.

B1: TEV protease; numbered along this chain (parent)
chain: MGESLFKGPRDYNPISSSICHLTNESDGHTTSLYGIGFGPFIITNKHLFRRNNGTLVVQSLHGVFKVKDTTTLQQHLVDGRDMIIIRMPKDFPPFPQKLKFREPQREERICLVTTNFQTKSMSSMVSDTSCTFPSGDGIFWKHWIQTKDGQCGSPLVSTRDGFIVGIHSASNFTNTNNYFTSVPKNFMELLTNQEAQQWVSGWRLNADSVLWGGHKVFMVKPEEPFQPVKEATQL

Variants of: B1
Experiment: raw area under fraction-flipped curve 0-4 h after induction (AUC4h, not background-subtracted), DNA-recorder readout of cleavage of the substrate (dimensionless); higher = more cleavage of the substrate by the protease variant
Details: temperature: 34 °C; time window: 0-4 h after rhamnose induction
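Note: Bxb1 expression induced with 0.2% (w/v) L-rhamnose at OD600 near 0.5, cultures sampled hourly, flipped fraction per protease–substrate barcode pair counted by paired-end Illumina sequencing.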

Variant	area with substrate ECLYFQS	area with substrate EDLYFQS	area with substrate EELYFQS	area with substrate EFLYFQS	area with substrate EKLYFQS	area with substrate EVLYFQS	area with substrate EHLYFQS	area with substrate EILYFQS	area with substrate ELLYFQS	area with substrate EMLYFQS
R204P	0.0651	0.0918	0.0694	0.062	0.063	0.0608	–	–	–	–
W203S	0.0594	–	0.0683	–	0.0661	0.0559	0.0632	0.0584	0.0608	0.0614
G202W	0.0631	0.04	–	0.068	–	0.0706	0.0535	–	–	–
Q198G	0.0878	–	–	0.0948	–	0.0854	0.101	0.064	–	–
T176Q	0.095	–	0.0916	–	–	–	0.0631	–	–	–
N206C	0.139	0.125	–	–	0.104	–	0.134	0.0955	0.102	0.129
N177T	0.151	0.171	–	–	0.167	–	–	0.143	0.149	0.117
N177M	0.101	–	–	0.123	–	–	–	–	–	0.125
N177Q	0.14	–	–	–	–	–	–	0.147	0.0768	–
S135H	0.0636	0.0749	0.0721	–	–	–	0.0646	–	0.0755	0.0693
P134R	0.0805	–	0.0862	–	0.0933	0.0931	–	–	–	0.0867
T159P	0.138	–	–	–	–	–	0.129	–	–	–
N175Q	0.101	–	–	–	0.0913	0.142	–	0.115	–	–
L191Q	0.0477	0.0618	0.0903	0.0671	0.0533	–	0.081	0.0523	–	0.0635
I145N	0.109	0.132	–	–	–	–	–	0.126	0.0891	0.132
V165L	0.103	–	0.109	–	–	–	–	–	–	–
V165M	0.0744	–	0.0918	0.0456	–	–	0.0589	0.0739	–	0.109
N116F	0.0622	0.122	0.104	–	0.0827	–	–	0.103	0.106	–
S182H	0.0755	–	–	0.0878	–	0.0613	–	0.0645	0.0688	0.0809
S182E	0.0758	–	–	–	0.106	–	–	0.0849	0.0722	0.074
S182F	0.0471	–	0.0529	–	0.0695	–	–	0.0716	–	–
E189L	0.102	–	0.0972	0.0935	0.089	–	0.101	–	0.0693	–
E189Y	0.0929	–	–	–	0.0931	–	0.0828	0.0873	–	0.0553

Variant	area with substrate ECLYFQS	area with substrate EDLYFQS	area with substrate EELYFQS	area with substrate EFLYFQS	area with substrate EKLYFQS	area with substrate EVLYFQS	area with substrate EHLYFQS	area with substrate EILYFQS	area with substrate ELLYFQS	area with substrate EMLYFQS
S171Y	0.0706	–	–	–	–	0.0681	–	–	0.0593	–
S171K	0.0913	–	–	–	0.0831	0.0655	–	–	0.103	–
K148L	0.0751	–	–	–	–	0.0971	–	0.0911	0.0454	0.0924
T119S	0.116	0.116	–	0.0892	–	–	–	–	–	–
T119Q	0.118	–	–	–	0.145	–	–	–	–	–
T119C	0.106	–	–	0.0938	0.0935	0.0937	–	–	0.0827	–
Q197I	0.103	0.068	–	–	0.132	0.1	–	0.108	–	0.143
T181E	0.0574	–	–	–	–	–	–	0.0454	0.0601	–
T181V	0.093	–	0	–	0.0747	0.0825	0.0999	0.0735	0.0941	0.101
T181K	0.0576	–	–	–	0.0708	–	–	0.0286	–	0.0863
T181C	0.0986	–	–	–	–	–	–	0.0983	–	–
T181H	0.0561	0.0444	–	0.0654	0.0834	–	–	0.0564	–	–
T132N	0.0785	–	–	–	–	–	0.0845	0.0673	–	0.107
K142N	0.0682	–	–	–	–	0.0869	–	0.0882	0.083	0.114
N172H	0.0388	–	0.0599	–	–	–	–	–	–	–
N172V	0.0594	0.0452	0.0642	–	–	0.0397	0.0553	0.038	–	–
N172W	0.0452	–	0.0593	–	–	–	–	–	–	–
N172M	0.151	–	–	–	–	–	–	–	–	–
C131K	0.118	0.0982	–	–	–	–	–	–	–	–
G150Y	0.0578	0.0613	–	–	–	0.0937	–	0.0528	–	–
N186T	0.119	–	0.148	–	0.122	–	–	0.0911	0.0933	–
N193K	0.0832	0.108	0.123	–	0.119	–	0.0957	0.0955	0.0813	0.105

Same assay, conditions: temperature: 34 °C; time window: 0-4 h after rhamnose induction

Variant	area with substrate EQLYFQS	area with substrate ERLYFQS	area with substrate ESLYFQS	area with substrate EYLYFQS	area with substrate EGLYFQS	area with substrate EPLYFQS	area with substrate ETLYFQS	area with substrate EWLYFQS
W203S	0.0655	0.0598	0.0606	0.0671	–	–	–	–
G202W	–	0.0552	0.06	–	0.0685	0.0613	–	–
Q198G	0.0982	0.104	0.0083	–	0.106	–	0.0873	0.082
T176Q	0.0858	–	–	–	–	–	–	–
N206C	0.106	0.0997	0.102	0.0968	–	0.105	–	–
N177T	0.184	0.129	0.173	–	–	–	–	0.152
N177M	0.0857	0.112	–	–	–	–	–	–
N177Q	0.142	–	0.127	–	–	–	–	0.116
S135H	–	0.0675	0.0637	–	0.0667	–	–	–
P134R	–	0.0914	0.0928	0.0858	–	–	0.1	–
T159P	–	0.121	0.116	–	–	0.14	0.105	–
N175Q	0.139	–	–	0.132	–	–	–	–
L191Q	–	–	0.0574	–	–	0.0525	–	–
I145N	0.111	–	–	–	–	–	0.133	–
V165L	–	0.119	–	–	–	–	–	–
V165M	–	–	0.0613	–	–	–	–	–
N116F	0.0987	0.0926	0.112	–	–	–	–	–
S182H	–	–	0.0796	–	–	0.0879	–	–
S182E	0.0704	0.0635	0.0998	0.0659	–	0.0863	0.0821	–
S182F	–	0.0606	0.0667	–	0.0416	–	–	0.0537

Variant	area with substrate EQLYFQS	area with substrate ERLYFQS	area with substrate ESLYFQS	area with substrate EYLYFQS	area with substrate EGLYFQS	area with substrate EPLYFQS	area with substrate ETLYFQS	area with substrate EWLYFQS
E189L	0.121	0.0781	0.102	–	–	0.114	–	–
E189Y	0.141	–	0.0999	–	0.105	–	–	–
S171Y	0.0477	–	0.0612	0.0606	–	0.0552	–	0.0458
S171K	0.088	–	0.0848	–	–	0.103	–	–
T119S	–	0.0523	0.104	–	–	–	–	–
T119Q	–	–	0.101	–	–	–	–	0.122
T119C	–	–	0.0886	0.122	–	–	0.0556	–
Q197I	–	0.11	0.107	–	–	–	–	0.139
T181E	–	0.0679	–	–	0.0545	–	0.0653	–
T181V	–	0.0861	0.0888	0.0831	–	–	–	–
T181K	–	–	0.0589	–	–	–	–	0.0497
T181C	–	–	0.112	–	0.0579	–	–	–
T181H	0.03	–	0.0761	–	–	0.0504	–	–
T132N	0.0763	–	0.0762	0.0628	0.0556	0.125	–	–
K142N	–	–	0.0909	–	–	–	–	0.109
N172V	0.0664	0.0707	0.0823	–	–	0.0468	–	0.0682
C131K	–	–	0.109	–	–	–	0.141	–
G150Y	–	–	0.0515	–	0.0691	–	–	–
N186T	0.0861	–	0.0884	–	–	–	–	–
N193K	0.101	–	–	0.0554	–	–	–	–
